In the supplement of paper PMC10126150:
Values marked as one replicate rest on one cluster of the flow cell; about a third of the high ones do not repeat.

System: ATP
Assay: switch fluorescence ratio, 500 uM ATP over buffer (Cy3 cluster intensity, sum of 5 cycles each) (fold (ratio)); higher = stronger signal-on switching upon ATP binding; sequences stand for … in TCGTCGGCAGCGTCAGATGTGTATAAGAGACAGTTTTTTTTTTTTTTTTTTTTTTTTT…TC
Details: aptamer strand: ATP DNA aptamer (quencher-CACCTGGGGGAGTATTGCGGAGGAAGG + anchor), 100 nM annealed; ATP concentration: 500 uM; one replicate
Method in brief: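 Values give the fluorescence ratio for each switch-domain sequence, averaged from per-cluster ratios of summed target-cycle to summed buffer-cycle Cy3 intensity. The Cy3-labelled switching-strand clusters sat on a modified Illumina MiSeq flow-cell, were annealed to 100 nM quencher-labelled ATP aptamer, and were imaged in selection buffer, then after 15 min with 500 uM ATP at 22 °C. Five cycles ran with NaOH stripping and re-annealing between them, and clusters outside 100-1000 RFU were excluded.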
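Further: ATP exposure 15 min at 22 °C before imaging.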

Sequence	switch fluorescence ratio
TAATGAGATT	0.985
GGCGGAAGGC	1.01
CAAATAGGTT	0.986
AGTTAAGGAA	1.02
GACACTTTTG	1.1
GACCCGACTG	1.01
TATGTCCAAG	0.94
ATAAGCGACT	0.997
GTATGGTCTC	0.988
TTTTGCAACG	1
CGAGAGAATT	1.1
TATAATCTTG	0.971
GCATGTGGTA	1
TACCACATG	1.03
AAAAACGTTT	1.01
AGAAGTCTTT	0.935
AGGGCGGACC	1.02
GCTAAACCAA	1.06
GGTAAACGCT	1.03
AATCATGTCG	1.08
TAAAGTTGT	1.01
TATAGGTTGT	1.06
TGTCGAATCG	1.06
TACCGAGAAA	1.08
GTGTTACAGG	1.02
TGATGTCTTA	0.994

Sequence	switch fluorescence ratio
TATTTTTGAT	0.963
CAGGATAGAC	0.992
ATGCGGCGGG	0.984
GGGTTGTGCA	0.989
AGTTGACAA	0.992
TGCTATGCTT	1.05
CTGGGGTTAA	1.01
TTAATCTCGT	0.954
TTTCTATCT	1.01
TCATCGTGGT	0.973
ATGTAGATAC	1.16
CGGTAGCAA	4.26
TACTGTCATT	1.09
TAGTGGAAA	1.01
ATTCATGGTA	0.977
ATGCTTTCCT	1.03
AATCTTATGC	0.969
TAATGCCCG	0.979
AGCTGAGGCA	0.992
CCGGGGACCA	1.02
CAACATATTC	1
TAGGGTTCT	1.02
ATTTAATGT	1.01
GACGGTACGG	0.999
AATCGCTGC	1.06
AGTGTCAAAT	1.01

Sequence	switch fluorescence ratio
TTTCCAGAAA	0.992
GCAAGGACTT	1.06
GACTATATTT	0.997
TCCGTTTTG	1.08
CGCAGCGATT	1.82
ACCTATATTT	1.01
TTTTCAATAT	1.9
GACCTGAAAT	1.08
TAAATCATAG	0.99
ACTCGCATTA	5.25
GCTACTCGA	1.07
ATGGTGGAAT	0.97
CTGAACTACT	1.06
CTCGCACGAA	1.12
TTCCAGGAGT	1.23
CTGTCACGAC	1.13
TTTGGATTCG	1.03
GCCCCGGCTT	1.03
GCCGTACTCG	1.04
TTATCTTTAT	1
TAGCGAGTAC	1.2
AGGGCCAGTG	1
AGTGCCTAAT	1.06
GATCACGTGT	1.02
TCGGACAT	1.02
AGGTCGTGTA	0.971

Sequence	switch fluorescence ratio
ATCCTGTATG	0.989
GCTCCTGGGA	1.31
TTGGAATTAA	0.984
GGTGTTTATT	0.978
GCGACAAAAG	1.1
CTATACTCTA	1.09
AAAAAGGGCT	1.03
AATTCGGGTA	1.03
CCAGGACAAG	1.05
CCACGCTCCA	1.37
CTAGGCTGTT	1
CCTTACTTTA	1.06
CGGAGAATCC	1.01
TTTTACCCCA	1.07
TTCCCGAGCC	1.13
GCCAAGGTAT	0.948
AACGATTAGT	0.979
GTCGCCCGCT	0.938
TAGGATTACG	0.982
CATCCGTGAG	3.72
CTGTCTAAAT	1
ACCGGCATCG	1.03
GAGGCGACTT	1.03
AAAGGGCATT	1.03
CATACGTCG	1.02
AAGCTCCGAA	1.28

Sequence	switch fluorescence ratio
CCATCGCTGG	1.29
GAGTGAGGAC	0.954
AAAGTTTAAT	0.954
TTTTCTTTAG	1.03
TGAAATTTGA	1.03
GGTTAGTTGT	0.994
AGACGAAGAG	1.07
TATTTCCCGA	1.03
AACGTCGAGA	0.986
TTCCATACGT	1.04
GGCTTTGTAT	1
AGATATATGC	1.06
CATGACTGGG	1.07
ATATACTGG	1.06
GACCGGGGCG	1.06
TACTAGGGGT	1.01
GAACCGTACT	1.27
CGCGAATAGG	1.03
TCACTACGTC	1.04
ATATAACGGT	1
TTATTAGTGG	1.01
CGGCGTGGTT	0.927
ATTTTCCTAG	1.01
ATTGACACAC	1.5
TATTGGCCGG	1.01
ATCTCCAACG	1.05

Sequence	switch fluorescence ratio
TATCATGAGC	0.923
TCGGCCAGCT	1.04
ATGCATACAC	1.22
TTTACTTATA	1.03
CACACGGATT	1.02
GACCCAAGTA	1.07
CACCTTCTAT	1.13
AGCTTTAATC	1.05
GCCTACAGCT	0.996
CTTAAACAGG	1.05
GGCTTTCCAG	0.972
TTGTGCACAT	0.988
CCATAATGCG	1.04
GCCGTCA	1.01
ATACGAGCAT	1.09
TCGTCGGTAG	0.989
AGGCGTTGTT	1.05
ACGTTAAAGG	1.11
GTTTTGAAAT	1.05
CCGTTGATC	1.18
TGCTGGCCCA	1.09
AGTCGGGTC	0.971
GCTGCTAGGG	0.995
TAGACTAAAT	1.07
CACCCTTATC	1.11
CGTCGGGTAC	1.73

Sequence	switch fluorescence ratio
TGGGCGGTAA	0.976
CGCGGCGTGC	1.1
CCGCTTTGGT	1.28
TAGGGTTTA	0.979
TGTACCTAAT	1.05
TTGTGTATAG	0.973
ATAGTCATAA	0.953
TAGCACTGAA	1.04
AGACAATTTA	1.03
CGTCGTCGCG	1.03
ATGTCTTTTT	0.939
TTAATGACGG	1.01
GTATTTTCTG	1.02
ATGCTGACCC	1.08
TCCGGGCGTG	1.03
GATGCTGCAG	0.995
TCTAGATTTT	1.03
CCTTTACGCC	1.61
TATTTTGTAC	1.07
ATTGTCATAG	0.983
GATTCAGTTG	1.02
TGTTGAGAGG	1.03
CTCGTTGGA	0.984
CGGCGACGCG	1.02
CGAGTATCGA	0.975
AGCAGTAT	1.14

Sequence	switch fluorescence ratio
AGTCCTTGCA	1.09
GAGAAGATGA	0.985
TGATTGTGGA	0.995
CCAAGGCGGT	1.34
TATCGAACGG	1.02
GAGGGTGCG	0.983
ACTATGGTAG	0.979
AATGAGGGAT	1.01
CATTCAAGGA	0.982
AGACGCGGGC	1.08
GAGTGCAGCA	1.01
TATCGTTAT	1.01
GTCGCAACG	1.01
TGGTTATTGA	1
CATCGTAGGA	1.02
AGGGGCATTA	1.02
GACGGCCTTT	0.994
CGAGAAA	1.02
GCTTTTGCAT	0.971
